Screen size: about 220,000 compounds; about 16,000 (7.3%) were called active. Inconclusive results, whose numbers are uncertain, are shown with a selection of clear calls. The call rests on the fitted dose curve; in most records, active means well fitted inhibition curve with a large enough effect (not every such curve was filed as active); inconclusive means small, poorly fitted or top-dose-only effect, or another doubt; inactive means no such curve, though single readings can be large or run the other way. Potencies of inconclusive entries are left out as doubtful fits.
biological target: Aldehyde dehydrogenase 1A1 (Homo sapiens) (UniProt P00352); test: qHTS Assay for Inhibitors of Aldehyde Dehydrogenase 1 (ALDH1A1); conditions: Purified ALDH1A1, NADH fluorescence, propionaldehyde substrate; series mostly up to 75.3 µM;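 on activity, negative = inhibition: plate controls were no enzyme wells and a reference inhibitor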
Potency means the concentration at half of the fitted maximal effect; tags describe the fitted curve by direction and shape.

Chain of UniProt P00352 (P00352 whole entry, looked up): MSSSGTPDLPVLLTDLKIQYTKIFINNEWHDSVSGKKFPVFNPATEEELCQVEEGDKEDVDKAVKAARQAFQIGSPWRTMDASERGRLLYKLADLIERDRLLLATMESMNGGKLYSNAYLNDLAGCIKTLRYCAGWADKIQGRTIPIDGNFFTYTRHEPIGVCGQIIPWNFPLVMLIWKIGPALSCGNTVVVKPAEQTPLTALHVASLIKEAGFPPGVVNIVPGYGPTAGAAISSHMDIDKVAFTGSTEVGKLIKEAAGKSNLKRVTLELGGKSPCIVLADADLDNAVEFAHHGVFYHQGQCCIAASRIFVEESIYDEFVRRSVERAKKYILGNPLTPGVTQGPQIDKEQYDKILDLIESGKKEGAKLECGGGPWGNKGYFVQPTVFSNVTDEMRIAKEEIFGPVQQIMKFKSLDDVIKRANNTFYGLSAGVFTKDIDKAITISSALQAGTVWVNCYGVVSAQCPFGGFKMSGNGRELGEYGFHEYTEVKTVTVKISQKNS

| Compound | Potency | activity, negative = inhibition |
| --- | --- | --- |
| CCOC(=O)c1c(NC(=O)CSc2nc3ccccc3o2)sc(C)c1C | inactive |  |
| O=C(O)C1C2CCC(C2)C1C(=O)Nc1nc2ccccc2s1 (stereo not drawn) | inconclusive [inhibitor, partial curve] |  |
| COc1cccc(-c2cc3nc4c(c(N5CCC6(CC5)OCCO6)n3n2)CCC4)c1 | inconclusive [inhibitor, single point] |  |
| CCOC(=O)C1=C(C)OC(N)=C(C#N)C1c1cccs1 (stereo not drawn) | inconclusive [inhibitor, single point] |  |
| COc1ccccc1C(=O)Nc1ccc(N2CCN(S(C)(=O)=O)CC2)cc1 | inconclusive [inhibitor, partial curve] |  |
| Cc1ccc(CNC(=O)c2coc(=O)c3ccccc23)o1 | inconclusive [inhibitor, single point] |  |
| COc1ccc2cc(C)c3nnc(SCC(=O)Nc4nc(-c5ccccc5)cs4)n3c2c1 | inactive |  |
| Cc1ccccc1N1CN(Cc2ccco2)CNC1=S | inconclusive [inhibitor, single point] |  |
| O=[N+]([O-])c1ccc(C2CN=C(Nc3ccccc3)S2)cc1 (stereo not drawn) | inconclusive [inhibitor, single point] |  |
| Cc1ccc(-c2nc3cccnc3s2)cc1NC(=O)C1c2ccccc2Oc2ccccc21 | inconclusive [inhibitor, partial curve] |  |
| Cc1nc(C)c(C(=O)Nc2cccc(C)c2C)o1 | active: 17.8 µM |  |
| Cc1ccccc1NC(=O)c1ccc(Cl)c(NC(=O)c2ccncc2)c1 | inactive |  |
| O=C(NC(=S)Nc1ccccc1N1CCOCC1)c1ccc(-c2cc(Cl)ccc2Cl)o1 | inconclusive [inhibitor, single point] |  |
| O=C(CCn1cnnn1)Nc1ccc(F)cc1 | inactive |  |
| COc1c(F)c(F)c(C(=O)Nc2ccc3oc(-c4ccncc4)nc3c2)c(F)c1F | inconclusive [inhibitor, single point] |  |
| CCC(C(=O)Nc1cc(Cl)ccc1OC)c1ccccc1 (stereo not drawn) | active: 22.4 µM |  |
| Cc1ccc(NC(=S)NC2CC3CCCC(C2)N3Cc2cccs2)cc1 (stereo not drawn) | inconclusive [inhibitor, single point] |  |
| NNC(=O)c1ccc(Cn2cc(Br)cn2)cc1 | active: 5.62 µM |  |
| CSc1nsc(SCC(=O)Nc2ccc3c(c2)OCCO3)n1 | inconclusive [inhibitor, single point] |  |
| Nc1cc(C(=O)O)[nH]c(=O)n1 |  | inactive: 5.04% [at 13.5 µM] |
| CCOc1ccc(S(=O)(=O)NCCCN2CCOCC2)cc1 | inactive |  |
| C=CCn1cccc(C(=O)Nc2cc(OC)ccc2OC)c1=O | inconclusive [inhibitor, single point] |  |
| CN1CC(=O)N(CC(=O)Nc2cccc(S(=O)(=O)N3CCOCC3)c2)C1=O | inactive |  |
| COc1ccccc1Nc1nnc(SCc2nnc(-c3cc(OC)c(OC)c(OC)c3)o2)s1 | inconclusive [inhibitor, single point] |  |
| COc1ccccc1N(CC(=O)NCC1CCCO1)C(=O)Cn1nnc(-c2cccs2)n1 (stereo not drawn) | inconclusive [inhibitor, partial curve] |  |

| Compound | Potency | activity, negative = inhibition |
| --- | --- | --- |
| Cc1nc(NCCO)c2nc(-c3ccccc3)n(CCN(C)C)c2n1 | inconclusive [inhibitor, partial curve] |  |
| CCN(CC)C(=O)CSc1nc(-c2ccco2)cc(C(F)(F)F)c1C#N | inconclusive [inhibitor, partial curve] |  |
| COc1ccccc1OCC(=O)NCCSCc1ccc(Cl)cc1 | inactive |  |
| CCOc1ccc(OCC)c(S(=O)(=O)NCc2ccc3c(c2)OCO3)c1 | inconclusive [inhibitor, single point] |  |
| O=[N+]([O-])c1ccc(Cl)c(/C=N/n2c(C3CCCCC3)n[nH]c2=S)c1 | inconclusive [inhibitor, partial curve] |  |
| Clc1ccc2c(N3CCCC3)ccnc2c1 | inactive |  |
| Cc1cc(C(=O)NC(=S)Nc2cccc(NC(=O)C(C)C)c2)ccc1[N+](=O)[O-] | inconclusive [inhibitor, single point] |  |
| O=C(C1CCCCC1)N(Cc1nc2sc3c(c2c(=O)[nH]1)CCCC3)Cc1cccs1 | inconclusive [inhibitor, single point] |  |
| O=C(c1cnccn1)N1CCC[C@@]2(CCN(c3ccccc3)C2)C1 | inconclusive [inhibitor, single point] |  |
| CCOc1ccc(NCc2cc3c(C(C)(C)C)nn(-c4ccccc4)c3[nH]c2=O)cc1 | inconclusive [inhibitor, partial curve] |  |
| O=C1c2ccccc2N2C(=O)c3ccccc3C2N1O (stereo not drawn) | inconclusive [inhibitor, partial curve] |  |
| CC(C)CC(N=Cc1c(O)c2ccccc2oc1=O)C(=O)O (stereo not drawn) | active: 14.1 µM |  |
| COc1ccc(C2(CNC(=O)c3cccc([N+](=O)[O-])c3)CCOCC2)cc1OC | inactive |  |
| CCN(c1ccccc1)c1nc(=O)c2cccnc2s1 | active: 20 µM |  |
| NC(=O)C1CC(=O)N(c2ccc(OCc3c(Cl)cccc3Cl)cc2)C1 (stereo not drawn) | inconclusive [inhibitor, full curve, poor fit] |  |
| CCOC(=O)c1sc(=S)n(-c2cccc(OC)c2)c1N | active: 22.4 µM |  |
| CCOC(=O)c1c(NC(=O)c2cc(-c3ccc(O)cc3)on2)sc(C(C)=O)c1C | active: 22.4 µM |  |
| COc1ccccc1CNC(=O)COC(=O)CCC(=O)c1cccs1 | inactive |  |
| O=C(Nc1ccc(S(=O)(=O)NCC2CCCO2)cc1)c1ccc(Cl)cc1[N+](=O)[O-] (stereo not drawn) | inactive |  |
| CC(=O)COc1ccc2c(-c3ccccc3)cc(=O)oc2c1 | active: 6.31 µM |  |
| CCn1c2ccccc2c2cc(NC(=O)COC(=O)Cc3cn4ccsc4n3)ccc21 | inconclusive [inhibitor, single point] |  |
| O=C(Nc1nnc(SCc2ccccc2)s1)c1cc2c(s1)CCCC2 | inactive |  |
| Nn1c(SCc2cccc(C(F)(F)F)c2)nnc1-c1ccco1 | active: 22.4 µM |  |
| COc1c(F)c(F)c(C(=O)Nc2ccc(-c3nc4ccccc4[nH]3)cc2)c(F)c1F | inconclusive [inhibitor, single point] |  |
| O=C(NCc1ccco1)C12CN(Cc3ccccc3)CC1C(c1cccc([N+](=O)[O-])c1)=NO2 (stereo not drawn) | inactive |  |

| Compound | Potency | activity, negative = inhibition |
| --- | --- | --- |
| C(=N\n1cnnc1)/c1cccn1-c1ccccc1 | inconclusive [inhibitor, single point] |  |
| O=C(N/N=C/c1ccccn1)c1cccs1 | inconclusive [inhibitor, partial curve] |  |
| O=C(CSc1nnc(-c2ccc(F)cc2)o1)c1ccc2c(c1)OCCO2 | inactive |  |
| c1ccc(-c2ncnc3nc4n(c23)CCC4)cc1 | inconclusive [inhibitor, single point] |  |
| COc1ccc(-c2cc(C(F)(F)F)nc(-n3ccnc3)n2)cc1 | inconclusive [inhibitor, partial curve] |  |
| CCCOC(=O)CSC1=C(C#N)C(c2ccccc2Cl)CC(=O)N1 (stereo not drawn) | inconclusive [inhibitor, single point] |  |
| C=C(C)CSc1nc2nc(C)cc(C)n2n1 | inconclusive [inhibitor, single point] |  |
| CCOCCCNc1nc2nc3ccc(C)cn3c(=O)c2cc1C(=O)NCC1CCCO1 (stereo not drawn) | inconclusive [inhibitor, single point] |  |
| Cc1nc(SCC(=O)O)c(C#N)c(C)c1CC(=O)c1ccccc1 | inactive |  |
| CC1CCC/C(=N\NC(=O)COc2ccc(Cl)cc2Cl)C1 (stereo not drawn) | inconclusive [inhibitor, partial curve] |  |
| COc1ccc(C)cc1-n1nnnc1SCc1nc2ccccc2c(=O)[nH]1 | active: 39.8 µM |  |
| CCCCCn1c(=O)c(-c2nc3ccccc3[nH]2)c(O)c2ccccc21 | inconclusive [inhibitor, partial curve] |  |
| Cc1cc(NC(=O)CSc2ccc3ccccc3c2)no1 | inconclusive [inhibitor, single point] |  |
| Cc1cc(C)n(-c2nc3ccccc3nc2N2CCC(C)CC2)n1 | inconclusive [inhibitor, single point] |  |
| CSc1nnc(C)c(=O)n1COC(=O)/C=C/c1ccc2c(c1)OCO2 | inconclusive [inhibitor, single point] |  |
| Cc1cc(C)cc(C(=N)c2ccccc2Cc2cccc3ccccc23)c1 |  | inactive: 3.65% [at 13.5 µM] |
| CCOc1ccc(C(C)(C)C)cc1S(=O)(=O)N1CC(C)OC(C)C1 (stereo not drawn) | inconclusive [inhibitor, partial curve, poor fit] |  |
| CC1CCCC(NC(=O)COC(=O)c2ccccc2NC(=O)c2ccco2)C1C (stereo not drawn) | inconclusive [inhibitor, partial curve] |  |
| CC1=C(C(=O)OCc2ccc3c(c2)OCO3)C(c2cccc([N+](=O)[O-])c2)NC(=O)N1 (stereo not drawn) | inactive |  |
| COC(=O)c1ccc(CSc2ccc3nnc(-c4cccc(F)c4)n3n2)o1 | inconclusive [inhibitor, partial curve] |  |
| COc1ccccc1-n1c(SCC(=O)N2CCCCC2)nnc1-c1ccccc1O | inconclusive [inhibitor, single point] |  |
| CC(C)=CCC(C)(C)C1OCCN1C(=O)c1ccccc1 (stereo not drawn) | inconclusive [inhibitor, single point] |  |
| CCNC1=C(Cl)C(=O)c2ccccc2C1=O | inconclusive [inhibitor, partial curve] |  |

Source: PubChem BioAssay AID1030 (National Center for Advancing Translational Sciences (NCATS), 2008)
